Measurements: the CheMixHub viscosity set
Several values for one entry are separate records, joined by “and”; a condition that tells them apart may be missing. Equal values may be shown once. Further values from the same series stand in other lists.

Assay: xn = mol fraction of the nth substance listed

OCC(O)CO + O
viscosity
Conditions	313.15 K	318.15 K	323.15 K
101 kPa, x1 = 0.021	–	–	0.68 mPa·s
101 kPa, x1 = 0.047	–	–	0.879 mPa·s
101 kPa, x1 = 0.077	–	–	1.16 mPa·s
101 kPa, x1 = 0.1005	–	–	1.446 mPa·s
101 kPa, x1 = 0.12	–	–	1.62 mPa·s
101 kPa, x1 = 0.16	–	–	2.37 mPa·s
101 kPa, x1 = 0.2026	–	–	3.104 mPa·s
101 kPa, x1 = 0.23	5.08 mPa·s	–	3.76 mPa·s
101 kPa, x1 = 0.27	6.8 mPa·s	–	4.89 mPa·s
101 kPa, x1 = 0.28	7.73 mPa·s	–	5.5 mPa·s
101 kPa, x1 = 0.281	5.427 mPa·s	–	3.837 mPa·s
101 kPa, x1 = 0.3085	6.479 mPa·s	–	4.687 mPa·s
101 kPa, x1 = 0.31	9.4 mPa·s	–	6.61 mPa·s
101 kPa, x1 = 0.37	13.6 mPa·s	–	9.25 mPa·s
101 kPa, x1 = 0.399	12.55 mPa·s	–	8.47 mPa·s
101 kPa, x1 = 0.44	20.8 mPa·s	–	13.6 mPa·s
101 kPa, x1 = 0.5002	21.81 mPa·s	–	14.4 mPa·s
101 kPa, x1 = 0.53	33.5 mPa·s	–	21.2 mPa·s
101 kPa, x1 = 0.6006	52.92 mPa·s	–	22.57 mPa·s
101 kPa, x1 = 0.64	60 mPa·s	–	35.5 mPa·s
101 kPa, x1 = 0.6493	68.11 mPa·s	–	28.35 mPa·s
101 kPa, x1 = 0.66	68.1 mPa·s	–	39.8 mPa·s
101 kPa, x1 = 0.69	78.3 mPa·s	–	44.8 mPa·s
101 kPa, x1 = 0.6917	80.62 mPa·s	–	42.14 mPa·s
101 kPa, x1 = 0.72	89 mPa·s	–	51.5 mPa·s
101 kPa, x1 = 0.75	105 mPa·s	–	58.4 mPa·s
101 kPa, x1 = 0.79	121 mPa·s	–	67 mPa·s
101 kPa, x1 = 0.7958	132.4 mPa·s	–	75.22 mPa·s
101 kPa, x1 = 0.82	142 mPa·s	–	77.8 mPa·s
101 kPa, x1 = 0.86	166 mPa·s	–	88.9 mPa·s
101 kPa, x1 = 0.8905	182.3 mPa·s	–	98.41 mPa·s
101 kPa, x1 = 0.91	196 mPa·s	–	104 mPa·s
101 kPa, x1 = 0.95	235 mPa·s	–	122 mPa·s
101 kPa, x1 = 0.96	251.9 mPa·s	–	135 mPa·s
101.3 kPa, x1 = 0.002	0.657 mPa·s	0.605 mPa·s	0.55 mPa·s
101.3 kPa, x1 = 0.004	0.666 mPa·s	0.606 mPa·s	0.55 mPa·s
101.3 kPa, x1 = 0.005	0.694 mPa·s	0.629 mPa·s	0.565 mPa·s
101.3 kPa, x1 = 0.007	0.706 mPa·s	0.63 mPa·s	0.579 mPa·s
101.3 kPa, x1 = 0.009	0.713 mPa·s	0.645 mPa·s	0.59 mPa·s
101.3 kPa, x1 = 0.01	0.716 mPa·s and 0.735 mPa·s and 0.743 mPa·s	0.645 mPa·s and 0.667 mPa·s and 0.68 mPa·s	0.591 mPa·s and 0.605 mPa·s and 0.614 mPa·s
101.3 kPa, x1 = 0.02	0.756 mPa·s and 0.771 mPa·s	0.681 mPa·s and 0.699 mPa·s	0.619 mPa·s and 0.632 mPa·s
